Assay results from article PMC4336329 (PLoS ONE, 2015).
In all, about 310,000 compounds went through this assay and about 14,000 (4.5%) showed an effect of 50% or more. The effect is printed as a negative number. This is one part of the list.

target: human ether-à-go-go-related gene (hERG) potassium channel (human, UniProt Q12809); assay: primary screen, population patch clamp on CHO cells stably expressing hERG
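Also: peak tail current of the secondary pulse compared with the same well before compound.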

Chain of human ether-à-go-go-related gene (hERG) potassium channel (Q12809 whole entry, looked up): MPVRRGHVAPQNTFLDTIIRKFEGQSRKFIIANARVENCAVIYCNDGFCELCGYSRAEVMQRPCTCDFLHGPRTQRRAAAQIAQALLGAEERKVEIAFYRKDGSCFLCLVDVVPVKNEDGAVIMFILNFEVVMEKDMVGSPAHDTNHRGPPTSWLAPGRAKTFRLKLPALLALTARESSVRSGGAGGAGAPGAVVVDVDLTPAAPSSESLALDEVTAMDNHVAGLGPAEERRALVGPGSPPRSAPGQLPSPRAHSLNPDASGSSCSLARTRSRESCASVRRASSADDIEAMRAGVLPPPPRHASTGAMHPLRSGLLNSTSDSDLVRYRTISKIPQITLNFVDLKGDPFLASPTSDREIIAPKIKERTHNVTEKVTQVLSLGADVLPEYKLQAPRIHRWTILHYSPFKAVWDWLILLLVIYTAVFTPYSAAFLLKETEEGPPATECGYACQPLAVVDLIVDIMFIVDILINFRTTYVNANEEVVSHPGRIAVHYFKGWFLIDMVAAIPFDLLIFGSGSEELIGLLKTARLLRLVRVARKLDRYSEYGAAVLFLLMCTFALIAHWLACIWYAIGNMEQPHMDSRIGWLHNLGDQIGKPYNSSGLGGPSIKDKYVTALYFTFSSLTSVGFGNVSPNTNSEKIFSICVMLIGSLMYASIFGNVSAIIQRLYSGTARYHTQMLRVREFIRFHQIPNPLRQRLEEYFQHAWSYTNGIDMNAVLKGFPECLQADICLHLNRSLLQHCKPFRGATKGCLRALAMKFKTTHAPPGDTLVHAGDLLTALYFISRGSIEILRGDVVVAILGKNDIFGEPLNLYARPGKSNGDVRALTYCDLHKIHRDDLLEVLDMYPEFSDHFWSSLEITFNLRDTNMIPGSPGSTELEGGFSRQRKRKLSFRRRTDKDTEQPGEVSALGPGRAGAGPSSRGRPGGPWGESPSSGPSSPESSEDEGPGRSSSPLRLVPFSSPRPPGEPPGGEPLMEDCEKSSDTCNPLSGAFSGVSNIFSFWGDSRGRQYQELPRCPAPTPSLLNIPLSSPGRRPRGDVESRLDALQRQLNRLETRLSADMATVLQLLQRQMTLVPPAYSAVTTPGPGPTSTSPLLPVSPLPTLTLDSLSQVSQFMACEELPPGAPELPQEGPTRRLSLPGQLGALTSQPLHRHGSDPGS

| Structure (SMILES) | hERG current change (%, negative = inhibition) at 10uM |
| --- | --- |
| COc1ccc(-c2cc(=O)oc3cc(OCC(=O)NCc4ccccn4)ccc23)cc1 | -6.52% |
| Cc1nc(Cl)sc1C(=O)Nc1ccc2ccccc2c1 | 8.55% |
| Cc1ccc(Cl)cc1NC(=S)N/N=C/c1cccc2ccccc12 | 11.9% |
| Cc1sc2ncnc(N3CCC(C(=O)NCC(=O)Nc4ccc(F)c(F)c4)CC3)c2c1C | -67.2% |
| COc1ccc(/C=C2\SC(=O)N(CC(=O)N(C)C3CCS(=O)(=O)C3)C2=O)cc1 (stereo not drawn) | -1.39% |
| O=[n+]1c2c(n([O-])c3ccccc31)CCC2 | 6.51% |
| CN(c1nc2ccccc2[nH]c1=O)C1CCCCC1 | 1.68% |
| O=C(Nc1ccc([N+](=O)[O-])cc1)c1cccc(S(=O)(=O)Nc2cccnc2)c1 | 5.16% |
| COc1ccc(C2C(C(=O)c3ccco3)=C(O)C(=O)N2CC2CCCO2)c(OC)c1 (stereo not drawn) | 1.24% |
| CCCCn1c(N)c(N(CC(C)C)C(=O)C2CCN(S(=O)(=O)c3ccccc3)CC2)c(=O)[nH]c1=O | -1.01% |
| FC(F)Sc1ccc(-n2c(-c3ccc(Cl)cc3)c[n+]3c2CCC3)cc1.[Br-] | -92.6% |
| CCOC(=O)N1CCN(C(=O)CN(c2ccccc2OC)S(=O)(=O)c2ccc(C)cc2)CC1 | -20.4% |
| Cc1ccc2[nH]c(=O)c(-c3noc(C(C)C)n3)cc2c1 | -16% |
| Cc1ccc(NC(=O)CCNC(=O)Nc2ccccc2)cc1S(=O)(=O)N(C)C | 1.05% |
| Cc1ccc(-n2c(C(C)n3nc(C)c([N+](=O)[O-])c3C)n[nH]c2=S)cc1 (stereo not drawn) | 11.3% |
| COc1cc(C2c3c(oc4ccccc4c3=O)C(=O)N2CCN2CCOCC2)cc(OC)c1OC (stereo not drawn) | -4.12% |
| C/C(Cn1nnc([N+](=O)[O-])n1)=N\NC(=O)c1ccccc1 | 3.37% |
| CC1=C(C(=O)Nc2ccccc2C(=O)NCCCN2CCN(C)CC2)SCCO1 | 9.05% |
| O=C(COC(=O)c1nc(Cl)ccc1Cl)NC1CCCCC1 | 12.2% |
| COc1ccc(CCNC(=O)Cn2nnc(-c3ccccc3F)n2)cc1OC | 1.44% |
| CC(=O)NC(Cc1cc(C)ccc1C)C(=O)N1CCN(C(=O)Nc2ccc(C(C)=O)cc2)CC1 (stereo not drawn) | -4.23% |
| O=[N+]([O-])c1cccc(-c2ccc(SCc3cccnc3)nn2)c1 | -55% |
| CC1CC(C)CN(CCCNC(=O)Cn2ncc3c(=O)oc4ccccc4c32)C1 (stereo not drawn) | -43.1% |

| Structure (SMILES) | hERG current change (%, negative = inhibition) at 10uM |
| --- | --- |
| O=C(Nc1ccc([N+](=O)[O-])cc1)N1CCCCC1 | -1.34% |
| COc1ccc(N(CC(=O)NCCSCc2ccc(Cl)cc2)S(C)(=O)=O)cc1Cl | 6.61% |
| CCOC(=O)c1c(NC(C)=O)sc2c1CCCNC2=O | 0.342% |
| CCN(CC)CCCNc1oc(-c2cccc(Cl)c2)nc1C#N | -37.6% |
| Cc1c(CN2CCN(c3cccc(C(F)(F)F)c3)CC2)c(=O)n(-c2ccccc2)n1C | -39.7% |
| Cc1ccc(NC(=O)CSc2n[nH]c(-c3ccco3)n2)cc1 | -5.79% |
| Nc1ccc(-c2nnn(Cc3ccccc3F)n2)cc1 | -9.3% |
| CN1CCN(c2nc(N3CCN(c4ccccc4)CC3)ncc2F)CC1 | -21.1% |
| NC(=O)c1ccc(Oc2ccc(C(N)=O)cc2)cc1 | 17.5% |
| O=S(=O)(c1ccc(F)c(Cl)c1)N1CCCC1 | 10.4% |
| O=C(Nc1ccc(F)c(F)c1)c1ccccc1-c1ccccc1 | -6.3% |
| CCOC(=O)C1=C(COC(=O)c2ccc(Cl)cc2[N+](=O)[O-])NC(=O)NC1C (stereo not drawn) | 9.55% |
| O=C(NCc1ccco1)c1ccc(-c2csnn2)cc1 | 2.22% |
| Cc1cccc(-c2noc(CSc3ccccc3)n2)c1 | 3.2% |
| CCCNC(=S)NNC(=O)c1cc(C2CC2)nc2ccccc12 | 23.4% |
| CCCOc1ccc(C(=O)NC(=S)NCc2cccnc2)cc1 | -27.7% |
| CCCCCC1CC(CC(=O)O)C(=O)O1 (stereo not drawn) | 1.43% |
| Cc1ncc(CSc2nc3ccccc3[nH]2)c(N)n1 | -4.81% |
| Cc1cc(C(=O)CN2CCC(C)CC2)c(C)n1-c1ccccc1F | -5.74% |
| Cc1ccccc1OCCC(=O)N1CCN(S(=O)(=O)c2ccccc2F)CC1 | 9.81% |
| CCOC(=O)C(=O)N/N=C/c1cccc(Br)c1 | -10.5% |
| Cc1nnc(SCc2ccc(C(=O)Nc3cc(Cl)ccc3C)cc2)s1 | -23.7% |
